The test addresses T1, Siglec-10Fc (human, UniProt Q96LC7 17-546).
T1 construct: Used as the analyte in Biacore at different concentrations; also called human Siglec 10; not shown: Fc part of Siglec-10Fc
T1 sequence (looked up): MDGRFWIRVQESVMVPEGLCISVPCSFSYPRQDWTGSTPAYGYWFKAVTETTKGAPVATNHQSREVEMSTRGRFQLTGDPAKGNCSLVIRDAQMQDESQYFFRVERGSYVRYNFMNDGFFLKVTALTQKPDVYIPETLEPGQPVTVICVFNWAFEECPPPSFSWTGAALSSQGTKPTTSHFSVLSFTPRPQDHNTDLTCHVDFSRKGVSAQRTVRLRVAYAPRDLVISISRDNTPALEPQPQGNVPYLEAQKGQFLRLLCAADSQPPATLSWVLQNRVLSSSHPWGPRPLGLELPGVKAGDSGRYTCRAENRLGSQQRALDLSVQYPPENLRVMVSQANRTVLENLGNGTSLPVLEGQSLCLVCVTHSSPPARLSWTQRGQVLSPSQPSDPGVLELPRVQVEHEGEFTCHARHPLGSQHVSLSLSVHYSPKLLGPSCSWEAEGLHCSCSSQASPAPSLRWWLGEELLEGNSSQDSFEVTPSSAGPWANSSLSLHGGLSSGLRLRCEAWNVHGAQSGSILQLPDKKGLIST
Kind of test: Biacore (SPR): CD24Fc immobilized on the chip, Siglec-10Fc injected at different concentrations (0 to about 9.3×10^-7 M); response in RU plotted against Siglec 10 concentration with a fitted saturation curve.

1 molecule from patent publication US20230108492A1 (ONCOIMMUNE, published 2023) can be followed below.

For orientation: Kd means the equilibrium constant for the complex coming apart. A low value points to a tighter complex.

B1: CD24Fc fusion protein (processed, secreted form) (Fc fusion)
chain: SETTTGTSSNSSQSTSNSGLAPNPTNATT[gap - human IgG1 Fc]
notes: 6'; also called CD24Ig; CD24IgG1
The molecule B1 yielded a Kd of 162 nM.
